Some of the results follow. Single values are uncertain, as repeats are few or missing.

Test systems include SkMel30; SkMel5; UACC257; UACC62; WM115; WM1716; WM1745; WM3526; WM3619; WM451Lu.
What all share (assay): cell count relative to DMSO control; melanoma cells; higher = more viable cells
Details in all cases: library dose: standard library concentration; 72 h
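Further: cells treated in 1,536-well plates, then fixed and DAPI-stained, with nuclei counted from automated high-throughput microscope images.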

Regarding `O=C(O)C(=O)Nc1sc2c(c1C(=O)O)CCNC2` + Cc1cc([N+](=O)[O-])ccc1NS(=O)(=O)c1cc(Cl)ccc1Cl [FH535] (first compound 8.33333 µM, partner dose 5 µM), the cell count in the assay with SkMel30 came to 78%; in the assay with SkMel5, 71%; in the assay on UACC257, 55.2%; in the assay on UACC62, 87%; in the assay on WM115, 76.8%; in the assay on WM1716, 82.5%. Also, the cell count in the assay on WM1745 was found to be 52.8%; in the assay with WM3526, 67.7%; in the assay with WM3619 it was 57.4%; in the assay on WM451Lu it was 97.8%.
As to `N#Cc1c(O)c2c(-c3ccc(-c4ccccc4O)cc3)csc2[nH]c1=O` + COc1ccc(-c2ccc3c(N4CCOCC4)nc(N4C[C@@H](C)O[C@@H](C)C4)nc3n2)cc1CO [KU0063794] (first compound 10 µM, partner dose 0.1 µM), the cell count with SkMel30 was found to be 108%; with SkMel5 it was 78.7%; in the assay on UACC257, 93.9%; with UACC62, 85.7%; with WM115, 82.5%; in the assay on WM1716 it was 98.8%. In addition, the cell count in the assay with WM1745 turned out to be 110%; with WM3526 it was 99%; in the assay with WM3619, 63.5%; in the assay on WM451Lu, 84%.
As to `COc1cc2ncnc(Nc3ccc(Oc4ccccc4)cc3)c2cc1OC` + O=C(O)C(=O)Nc1sc2c(c1C(=O)O)CCNC2 [TCS401] (first compound 10 µM, partner dose 8.33333 µM), the cell count came out at 120% in the assay with SkMel30; 94.5% with SkMel5; 97.5% in the assay on UACC257; 104% in the assay on UACC62; 86.4% with WM115; 85.2% in the assay with WM1716. Besides, the cell count with WM1745 is 70.6%; in the assay on WM3526, 73.1%; in the assay with WM3619, 82.6%; with WM451Lu it was 102%.
Take `COc1ccc2c(c1)CCC1C2CCC2(C)C(NCCCCCCN3C(=O)C=CC3=O)CCC12` (stereo not given) + Oc1nc(-c2ccc(C(F)(F)F)cc2)nc2c1CSCC2 [XAV939] (first compound 2 µM, partner dose 10 µM): the cell count in the assay on SkMel30 was determined as 110%; with SkMel5, 88.2%; in the assay on UACC257, 81.5%; in the assay on UACC62, 74.1%; with WM115, 88.2%; in the assay on WM1716, 66.4%. Also, the cell count in the assay on WM1745 amounted to 72.8%; in the assay on WM3526 it was 104%; in the assay on WM3619, 78%; in the assay with WM451Lu, 93.8%.
As for `Oc1cc(-c2nc(-c3ccccc3)[nH]c2-c2ccncc2)ccc1Cl` + c1cc(-c2cnn3cc(-c4ccc(OCCN5CCCCC5)cc4)cnc23)ccn1 [Dorsomorphin] (first compound 1 µM, partner dose 2 µM), the cell count in the assay with SkMel30 was 84.2%; in the assay on SkMel5, 47.8%; in the assay on UACC257, 75.9%; with UACC62 it was 49.3%; with WM115, 62.2%; with WM1716, 65.8%. Further, the cell count was 34.5% with WM1745, 39.6% with WM3526, 79.7% in the assay with WM3619 and 42.3% in the assay on WM451Lu.
For the compound `Oc1cc(-c2nc(-c3ccccc3)[nH]c2-c2ccncc2)ccc1Cl` + CC(C)CCN1c2nc(Nc3cc(F)c(O)c(F)c3)ncc2N(C)C(=O)C1C [BID1870] (first compound 1 µM, partner dose 1 µM), the cell count worked out at 71.2% with SkMel30; 58.8% in the assay on SkMel5; 77.3% in the assay with UACC257; 57.8% in the assay with UACC62; 64% in the assay on WM115; 57.3% in the assay with WM1716. Also, the cell count came to 54% in the assay on WM1745, 46.8% with WM3526, 42.5% in the assay on WM3619 and 51.8% with WM451Lu.
Take `COc1ccc2c(c1)CCC1C2CCC2(C)C(NCCCCCCN3C(=O)C=CC3=O)CCC12` (stereo not given) + COc1cc(N2CCC(N3CCN(C)CC3)CC2)ccc1Nc1ncc(Cl)c(Nc2ccccc2S(=O)(=O)C(C)C)n1 [NVP-TAE684] (first compound 2 µM, partner dose 0.4 µM): the cell count is 121% with SkMel30; 64.9% with SkMel5; 80% in the assay on UACC257; 78.6% with UACC62; 70.9% with WM115; 79.2% in the assay on WM1716. Further, the cell count in the assay on WM1745 stood at 49.5%; in the assay with WM3526, 79.7%; in the assay on WM3619, 87.3%; in the assay with WM451Lu, 70.7%.
On to `Oc1nc(-c2ccc(C(F)(F)F)cc2)nc2c1CSCC2` + Cn1cc(/C=C2\C(=O)Nc3cccnc32)c2ccccc21 [GW441756] (first compound 10 µM, partner dose 2 µM), for which the cell count in the assay with SkMel30 is 88.9%; in the assay on SkMel5, 80.5%; with UACC257, 86.2%; with UACC62, 69.5%; with WM115, 103%; in the assay on WM1716, 80.3%. Further, the cell count was 64.6% with WM1745, 96% with WM3526, 70.1% in the assay on WM3619 and 113% in the assay with WM451Lu.
`Oc1nc(-c2ccc(C(F)(F)F)cc2)nc2c1CSCC2` + CCCCCCCCCCCC1=C(O)C(=O)C=C(O)C1=O [Embelin] (first compound 10 µM, partner dose 6 µM): the cell count was 96.1% in the assay on SkMel30; 65.5% in the assay on SkMel5; 81.9% in the assay on UACC257; 99.6% in the assay on UACC62; 104% in the assay on WM115; 73.7% in the assay with WM1716. Further, the cell count in the assay with WM1745 is 64.4%; in the assay with WM3526 it was 94.3%; in the assay with WM3619, 98.4%; in the assay on WM451Lu it was 102%.
For the compound `O=C(O)C(=O)Nc1sc2c(c1C(=O)O)CCNC2` + Cn1cc(/C=C2\C(=O)Nc3cccnc32)c2ccccc21 [GW441756] (first compound 8.33333 µM, partner dose 2 µM), the cell count in the assay with SkMel30 was determined as 104%; with SkMel5, 67%; in the assay with UACC257, 80.9%; with UACC62 it was 113%; in the assay on WM115, 104%; in the assay with WM1716, 79.1%. Also, the cell count is 66.5% in the assay with WM1745, 98.4% in the assay on WM3526, 74.6% with WM3619 and 105% in the assay on WM451Lu.
Take `Cn1cc(/C=C2\C(=O)Nc3cccnc32)c2ccccc21` + CC(C)CCN1c2nc(Nc3cc(F)c(O)c(F)c3)ncc2N(C)C(=O)C1C [BID1870] (first compound 2 µM, partner dose 1 µM): the cell count with SkMel30 is 70.2%; in the assay on SkMel5, 58.8%; in the assay on UACC257 it was 73.7%; in the assay with UACC62, 64.5%; in the assay on WM115, 103%; in the assay with WM1716, 95.1%. In addition, the cell count with WM1745 came to 81.7%; in the assay with WM3526, 77.3%; in the assay with WM3619, 74%; in the assay on WM451Lu, 87.8%.
As to `N#Cc1c(O)c2c(-c3ccc(-c4ccccc4O)cc3)csc2[nH]c1=O` + COC(=O)c1sccc1S(=O)(=O)Nc1ccc(Nc2ccccc2)cc1OC [GSK0660] (first compound 10 µM, partner dose 5 µM), the cell count was determined as 87% in the assay with SkMel30; 99.8% in the assay with SkMel5; 104% in the assay on UACC257; 93.4% with UACC62; 111% in the assay on WM115; 107% in the assay with WM1716. For the same compound, the cell count came to 93.7% in the assay on WM1745, 77.4% in the assay with WM3526, 103% in the assay on WM3619 and 100% in the assay with WM451Lu.

Values taken from the supplement of paper PMC4604168 (melanoma cell lines).
